Over roughly 81,000 sequences, “one-hybrid fitness for binding NBS DNA” has its median near -0.1; the highest 2% begin near 0.36. The list shows a part of the results.
B1: Caulobacter ParB omega fusion; a variant is named by its letters at X, in order, B8GW30 (parent)
chain: MESVVVGEPGMSEGRRGLGRGLSALLGEVDAAPAQAPGEQLGGSREAPIEILQRNPDQPRRTFREEDLEDLSNSIREKGVLQPILVRPSPDTAGEYQIVAGERAWRAAQRAGLKTVPIMVRELDDLAVLEIGIIENVQRADLNVLEEALSYKVLMEKFERTQENIAQTIGKSXSHVANXMRLLXLPDEVQSYLVSGELTAXHARAIAAAADPVALAKQIIEGGLSVRETEALARKAPNLSAGKSKGGRPPRVKDTDTQALESDLSSVLGLDVSIDHRGSTGTLTITYATLEQLDDLCNRLTRGI

Variants of: B1
Experiment: one-hybrid fitness for binding NBS DNA (the Noc-binding site; scaled: cognate 1, non-cognate 0); higher = stronger binding
Details: with NBS DNA site
In short: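 In E. coli USO, a HIS3 reporter with its site placed 19 bp from the promoter was used to select Caulobacter ParB variants randomised at four specificity codons. Growth lasted 48 hours at 37°C on histidine-free M9 containing 0.1 mM IPTG and 5 mM 3-AT. Fitness was taken as the log change in variant-to-wild-type read ratio from Illumina sequencing of pre- and post-selection plasmids, rescaled between the non-cognate and cognate sites.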

Row | Variant | one-hybrid fitness for binding NBS DNA
1 | KRET | 0.501
2 | TEEC | ≤ 0.2
3 | GVWN | ≤ 0.2
4 | WGRY | ≤ 0.2
5 | HNLS | ≤ 0.2
6 | TYNS | ≤ 0.2
7 | TSTR | ≤ 0.2
8 | SRMW | ≤ 0.2
9 | VNNI | ≤ 0.2
10 | QAVY | ≤ 0.2
11 | YGVR | ≤ 0.2
12 | QAMA | ≤ 0.2
13 | DNPC | ≤ 0.2
14 | HLST | ≤ 0.2
15 | CSGG | ≤ 0.2
16 | ESNS | ≤ 0.2
17 | QPCV | ≤ 0.2
18 | HDQT | ≤ 0.2
19 | AFTW | ≤ 0.2
20 | HKMM | ≤ 0.2
21 | YAPR | ≤ 0.2
22 | YQTA | ≤ 0.2
23 | PCPS | ≤ 0.2
24 | TRST | 0.323

Row | Variant | one-hybrid fitness for binding NBS DNA
25 | QDLD | ≤ 0.2
26 | PYTI | ≤ 0.2
27 | QHKA | 0.597
28 | LGMY | ≤ 0.2
29 | CKAT | ≤ 0.2
30 | YCHW | ≤ 0.2
31 | RGCG | ≤ 0.2
32 | QCYI | ≤ 0.2
33 | IFWS | ≤ 0.2
34 | NIYS | ≤ 0.2
35 | KSPY | ≤ 0.2
36 | VLKR | ≤ 0.2
37 | RMCV | ≤ 0.2
38 | QTHQ | 0.307
39 | TGAP | ≤ 0.2
40 | SQDV | ≤ 0.2
41 | CCAD | ≤ 0.2
42 | TGKM | ≤ 0.2
43 | VKLI | ≤ 0.2
44 | MSEA | ≤ 0.2
45 | QQMK | ≤ 0.2
46 | QVRA | 0.315
47 | TVCI | ≤ 0.2
48 | MREA | ≤ 0.2

Row | Variant | one-hybrid fitness for binding NBS DNA
49 | RQWR | 0.244
50 | PSGQ | ≤ 0.2
51 | PSKA | ≤ 0.2
52 | TPFV | ≤ 0.2
53 | NRSV | ≤ 0.2
54 | RPTA | ≤ 0.2
55 | HNYR | ≤ 0.2
56 | WILR | ≤ 0.2
57 | RTTG | ≤ 0.2
58 | MLHT | ≤ 0.2
59 | DEHS | ≤ 0.2
60 | PMPR | ≤ 0.2
61 | SSMP | ≤ 0.2
62 | LPMI | ≤ 0.2
63 | ADSR | ≤ 0.2
64 | CSAC | ≤ 0.2
65 | TMSD | ≤ 0.2
66 | PGYG | ≤ 0.2
67 | AGTN | ≤ 0.2
68 | YEAS | ≤ 0.2
69 | YKPK | ≤ 0.2
70 | SDDM | ≤ 0.2
71 | VWQT | ≤ 0.2
72 | MNHR | ≤ 0.2

Row | Variant | one-hybrid fitness for binding NBS DNA
73 | TSLG | ≤ 0.2
74 | VVFN | ≤ 0.2
75 | FTLD | ≤ 0.2
76 | NMYE | ≤ 0.2
77 | GQPV | ≤ 0.2
78 | TNAP | ≤ 0.2
79 | KTQG | ≤ 0.2
80 | KDAR | ≤ 0.2
81 | STNE | ≤ 0.2
82 | QKSV | ≤ 0.2
83 | MTTF | ≤ 0.2
84 | GYAS | ≤ 0.2
85 | RFFG | ≤ 0.2
86 | AERS | ≤ 0.2
87 | YGSY | ≤ 0.2
88 | KNQS | ≤ 0.2
89 | KWEI | ≤ 0.2
90 | GCCT | ≤ 0.2
91 | QWGF | ≤ 0.2
92 | HVQG | ≤ 0.2
93 | LVAG | ≤ 0.2
94 | QRCF | 0.275
95 | RFQT | 0.242
96 | MYPS | ≤ 0.2

Row | Variant | one-hybrid fitness for binding NBS DNA
97 | PSQP | ≤ 0.2
98 | CLCC | ≤ 0.2
99 | RCEK | ≤ 0.2
100 | HMSV | ≤ 0.2
101 | IRCM | ≤ 0.2
102 | ARNR | ≤ 0.2
103 | RWSW | ≤ 0.2
104 | RPNP | ≤ 0.2
105 | GRSV | ≤ 0.2
106 | NNIG | ≤ 0.2
107 | NHWR | ≤ 0.2
108 | CNRE | ≤ 0.2
109 | ASVL | ≤ 0.2
110 | RFAG | ≤ 0.2
111 | QTHI | 0.228
112 | RPNN | ≤ 0.2
113 | CDDA | ≤ 0.2
114 | DPHC | ≤ 0.2
115 | NTYD | ≤ 0.2
116 | RWGP | ≤ 0.2
117 | KPAT | ≤ 0.2
118 | QWMR | ≤ 0.2
119 | FKAC | ≤ 0.2
120 | QTVY | ≤ 0.2

Row | Variant | one-hybrid fitness for binding NBS DNA
121 | FTVP | ≤ 0.2
122 | NYYS | ≤ 0.2
123 | PTGG | ≤ 0.2
124 | QCLD | ≤ 0.2
125 | ALWG | ≤ 0.2
126 | QNLM | ≤ 0.2
127 | GPHD | ≤ 0.2
128 | MGSD | ≤ 0.2
129 | CGLG | ≤ 0.2
130 | VASS | ≤ 0.2
131 | RLDL | ≤ 0.2
132 | QPPW | ≤ 0.2
133 | TQPY | ≤ 0.2
134 | LRHY | ≤ 0.2
135 | GMPS | ≤ 0.2
136 | IKVE | ≤ 0.2
137 | YMPM | ≤ 0.2
138 | SWIL | ≤ 0.2
139 | RIWE | ≤ 0.2
140 | PLNF | ≤ 0.2
141 | PWQA | ≤ 0.2
142 | AKMV | ≤ 0.2
143 | NLHT | ≤ 0.2
144 | MAYR | ≤ 0.2

Row | Variant | one-hybrid fitness for binding NBS DNA
145 | AMLR | ≤ 0.2
146 | HMFL | ≤ 0.2
147 | EKLL | ≤ 0.2
148 | GCCR | ≤ 0.2
149 | SVTS | ≤ 0.2
150 | QKHG | ≤ 0.2
151 | SDAN | ≤ 0.2
152 | WAVQ | ≤ 0.2
153 | YLPH | ≤ 0.2
154 | CHRI | ≤ 0.2
155 | LNSK | ≤ 0.2
156 | ASMT | ≤ 0.2
157 | SPHP | ≤ 0.2
158 | NIIY | ≤ 0.2
159 | TASY | ≤ 0.2
160 | TAGH | ≤ 0.2
161 | QLWW | ≤ 0.2
162 | QQMA | 0.349
163 | TFPA | ≤ 0.2
164 | SSTR | ≤ 0.2
165 | SDHQ | ≤ 0.2
166 | CMIT | ≤ 0.2
167 | EFVT | ≤ 0.2
168 | GTKV | ≤ 0.2

Row | Variant | one-hybrid fitness for binding NBS DNA
169 | CVFW | ≤ 0.2
170 | THQR | 0.234
171 | RKQH | ≤ 0.2
172 | YVPT | ≤ 0.2
173 | DVPM | ≤ 0.2
174 | NDNT | ≤ 0.2
175 | HASW | ≤ 0.2
176 | LRKN | ≤ 0.2
177 | NCAN | ≤ 0.2
178 | GARP | ≤ 0.2
179 | GWAG | ≤ 0.2
180 | DVRR | ≤ 0.2
181 | PPLG | ≤ 0.2
182 | HRYI | ≤ 0.2
183 | WTAA | ≤ 0.2
184 | CQSC | ≤ 0.2
185 | TIID | ≤ 0.2
186 | FLPN | ≤ 0.2
187 | WHKM | ≤ 0.2
188 | GNQC | ≤ 0.2
189 | HVQN | ≤ 0.2
190 | KDNI | ≤ 0.2
191 | IATV | ≤ 0.2
192 | SRGV | ≤ 0.2

Row | Variant | one-hybrid fitness for binding NBS DNA
193 | VRPE | ≤ 0.2
194 | IDVR | ≤ 0.2
195 | EGSD | ≤ 0.2
196 | AKGS | ≤ 0.2
197 | YLAR | ≤ 0.2
198 | SEPY | ≤ 0.2
199 | SRNC | ≤ 0.2
200 | VYLK | ≤ 0.2
201 | HVMS | ≤ 0.2
202 | RFNF | ≤ 0.2
203 | CPHV | ≤ 0.2
204 | LTKH | ≤ 0.2
205 | PQFT | ≤ 0.2
206 | CRRV | ≤ 0.2
207 | EKRS | ≤ 0.2
208 | RAGI | ≤ 0.2
209 | KHRI | ≤ 0.2
210 | SMIH | ≤ 0.2
211 | HRRW | ≤ 0.2
212 | APMF | ≤ 0.2
213 | YRSM | ≤ 0.2
214 | EDND | ≤ 0.2
215 | CVPS | ≤ 0.2
216 | FSFC | ≤ 0.2

Row | Variant | one-hybrid fitness for binding NBS DNA
217 | IMPT | ≤ 0.2
218 | ACHC | ≤ 0.2
219 | ELDS | ≤ 0.2
220 | ELLI | ≤ 0.2
221 | WCQT | ≤ 0.2
222 | LVLV | ≤ 0.2
223 | NFPS | ≤ 0.2
224 | PRSR | ≤ 0.2
225 | VIRR | ≤ 0.2
226 | SSKP | ≤ 0.2
227 | APDV | ≤ 0.2
228 | HPHW | ≤ 0.2
229 | GDDN | ≤ 0.2
230 | THNY | ≤ 0.2
231 | QGVV | ≤ 0.2
232 | DNAQ | ≤ 0.2
233 | TSKG | ≤ 0.2
234 | ACDL | ≤ 0.2
235 | RQWP | ≤ 0.2
236 | QFVR | ≤ 0.2
237 | YINM | ≤ 0.2
238 | AGNF | ≤ 0.2
239 | GPDT | ≤ 0.2
240 | VGYE | ≤ 0.2

Row | Variant | one-hybrid fitness for binding NBS DNA
241 | WLSK | ≤ 0.2
242 | SWLF | ≤ 0.2
243 | FLKE | ≤ 0.2
244 | IAGS | ≤ 0.2
245 | MPDR | ≤ 0.2
246 | VYDT | ≤ 0.2
247 | RKCH | ≤ 0.2
248 | GHLH | ≤ 0.2
249 | KGTF | ≤ 0.2
250 | HTQV | ≤ 0.2
251 | QWPP | ≤ 0.2
252 | QRWW | ≤ 0.2
253 | VPIW | ≤ 0.2
254 | IETC | ≤ 0.2
255 | RFHA | ≤ 0.2
256 | QMHG | ≤ 0.2
257 | NSQV | ≤ 0.2
258 | HEFP | ≤ 0.2
259 | NEER | ≤ 0.2
260 | IYWG | ≤ 0.2
261 | QYRP | 0.216
262 | KIPT | ≤ 0.2
263 | SGTG | ≤ 0.2
264 | HMKC | ≤ 0.2

Row | Variant | one-hybrid fitness for binding NBS DNA
265 | QTLD | ≤ 0.2
266 | SFCL | ≤ 0.2
267 | TVEC | ≤ 0.2
268 | LFTP | ≤ 0.2
269 | FNNV | ≤ 0.2
270 | IFRM | ≤ 0.2
271 | FPHM | ≤ 0.2
272 | NLPE | ≤ 0.2
273 | SLAK | ≤ 0.2
274 | ANKV | ≤ 0.2
275 | RIGY | ≤ 0.2
276 | RLAA | ≤ 0.2
277 | GWKT | ≤ 0.2
278 | PLSS | ≤ 0.2
279 | GSCF | ≤ 0.2
280 | ARTR | ≤ 0.2
281 | TKSW | ≤ 0.2
282 | GVDD | ≤ 0.2
283 | RKWE | ≤ 0.2
284 | LRPI | ≤ 0.2
285 | RWGC | ≤ 0.2
286 | LKLR | ≤ 0.2
287 | YIPD | ≤ 0.2
288 | TIPK | ≤ 0.2

Row | Variant | one-hybrid fitness for binding NBS DNA
289 | LLHL | ≤ 0.2
290 | QGKW | ≤ 0.2
291 | GWMS | ≤ 0.2
292 | WRLI | ≤ 0.2
293 | CPWG | ≤ 0.2
294 | KPCD | ≤ 0.2
295 | PRVG | ≤ 0.2
296 | SSPP | ≤ 0.2
297 | MARR | 0.414
298 | VAPA | ≤ 0.2
299 | SDED | ≤ 0.2
300 | PLGP | ≤ 0.2
301 | QETA | ≤ 0.2
302 | FHES | ≤ 0.2
303 | AWGT | ≤ 0.2
304 | LKAM | ≤ 0.2
305 | NRSC | ≤ 0.2
306 | DGLS | ≤ 0.2

Source: a collection of fitness landscapes (doi:10.1016/j.celrep.2020.107928)
